Drawing on the supplement of paper PMC4967469, this text covers AUC and IC50 for 67 cell lines.

A lower IC50 marks a more sensitive line; a limit (>, <) means that the fit lies beyond the doses tested. AUC is the area under the same curve over the 256-fold range up to the top dose, as a fraction; values near 1 show little effect. A top dose marked as inferred is not printed in the source and was worked back from the curve model. Where only a bound is given, the exact number is not on record here.

Compound in the assay: O=C1NC(=O)/C(=C\c2ccc3nccnc3c2)S1 [AS605240]
Kind of assay: Viability of human cancer cell lines after 72 h of drug (GDSC screen). Conditions: top dose inferred. The method, then:
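Human cancer cell lines in 384-well plates, medium with 10% serum, drug for 72 h over a 256-fold dose range (nine 2-fold or five 4-fold steps up to the top dose). Adherent lines were fixed and stained with the nucleic acid dye Syto60, suspension lines read with resazurin; signal relative to control wells, capped at 0 and 100%. One two-parameter sigmoid per drug and line, fitted in a mixed model over all curves with the slope shared within a line.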
Usually IC50 stands for the concentration needed to halve the response being measured. Turning to “SNU-C1 (large intestine, suspension, top dose 20 µM)”, the AUC is 0.945 and the 50% inhibitory concentration (IC50) was above 20 µM.

As for “SNU-C2B (large intestine, adherent, top dose 20 µM)”, the AUC stood at 0.979 and the half-inhibitory concentration (IC50) is above 20 µM.

Take “SNU-C5 (large intestine, adherent, top dose 20 µM)”: the AUC was 0.825 and the IC50 is 13.6 µM.

Take “SR (lymphoid neoplasm, suspension, top dose 20 µM)”: the AUC amounted to 0.857 and the IC50 came to 13.7 µM.

With “ST486 (Burkitt lymphoma, suspension, top dose 20 µM)”, the AUC turned out to be 0.815 and the IC50 turned out to be 9.43 µM.

Take “STS-0421 (soft tissue, adherent, top dose 20 µM)”: the AUC is 0.973 and the IC50 is above 20 µM.

“SU8686 (pancreas, adherent, top dose 20 µM)”: the AUC was determined as 0.794 and the IC50 stood at 10.5 µM.

Take “SU-DHL-1 (anaplastic large cell lymphoma, suspension, top dose 20 µM)”: the AUC is 0.896 and the IC50 is 12.5 µM.

Take “SU-DHL-4 (B-cell lymphoma, suspension, top dose 20 µM)”: the AUC came to 0.966 and the IC50 is above 20 µM.

Consider “SU-DHL-5 (B-cell lymphoma, suspension, top dose 20 µM)”, for which the AUC turned out to be 0.852 and the IC50 came to 9.91 µM.

On to “SU-DHL-6 (B-cell lymphoma, suspension, top dose 20 µM)”, for which the AUC is 0.823 and the IC50 amounted to 8.02 µM.

With “SU-DHL-8 (B-cell lymphoma, suspension, top dose 20 µM)”, the AUC came to 0.49 and the half-maximal inhibitory concentration (IC50) amounted to 1.18 µM.

Regarding “SU-DHL-10 (B-cell lymphoma, suspension, top dose 20 µM)”, the AUC was 0.738 and the IC50 was determined as 4.69 µM.

As for “SU-DHL-16 (B-cell lymphoma, suspension, top dose 20 µM)”, the AUC stood at 0.915 and the half-maximal inhibitory concentration (IC50) stood at 14.7 µM.

With “SUIT-2 (pancreas, adherent, top dose 20 µM)”, the AUC was found to be 0.521 and the IC50 was determined as 1.43 µM.

Consider “SUP-B15 (lymphoblastic leukaemia, suspension, top dose 20 µM)”, for which the AUC came to 0.428 and the IC50 turned out to be 0.8 µM.

Regarding “SUP-HD1 (Hodgkin lymphoma, suspension, top dose 20 µM)”, the AUC was 0.845 and the IC50 is 13.5 µM.

As to “SUP-M2 (anaplastic large cell lymphoma, suspension, top dose 20 µM)”, the AUC was found to be 0.724 and the half-maximal inhibitory concentration (IC50) worked out at 4.48 µM.

Turning to “SUP-T1 (T-cell lymphoblastic leukaemia, suspension, top dose 20 µM)”, the AUC is 0.618 and the half-maximal inhibitory concentration (IC50) was found to be 2.55 µM.

For “SW13 (adrenal gland, adherent, top dose 20 µM)”, the AUC turned out to be 0.988 and the IC50 is above 20 µM.

On to “SW48 (large intestine, adherent, top dose 20 µM)”, for which the AUC turned out to be 0.937 and the IC50 is above 20 µM.

With “SW156 (kidney, adherent, top dose 20 µM)”, the AUC was determined as 0.954 and the IC50 is above 20 µM.

In the case of “SW620 (large intestine, adherent, top dose 20 µM)”, the AUC is 0.882 and the IC50 was 16.8 µM.

Consider SW626 (ovary, adherent, top dose 20 µM), for which the AUC amounted to 0.552 and the IC50 worked out at 1.78 µM.

On to “SW684 (fibrosarcoma, adherent, top dose 20 µM)”, for which the AUC is 0.98 and the 50% inhibitory concentration (IC50) is above 20 µM.

Turning to “SW756 (cervix, adherent, top dose 20 µM)”, the AUC turned out to be 0.985 and the IC50 was above 20 µM.

Consider “SW780 (bladder, adherent, top dose 20 µM)”, for which the AUC is 0.971 and the IC50 was above 20 µM.

Take “SW837 (large intestine, adherent, top dose 20 µM)”: the AUC was 0.488 and the IC50 came out at 1.15 µM.

Turning to “SW872 (soft tissue, adherent, top dose 20 µM)”, the AUC came out at 0.968 and the concentration for half-maximal inhibition (IC50) was above 20 µM.

With “SW900 (lung squamous cell carcinoma, adherent, top dose 20 µM)”, the AUC came out at 0.768 and the IC50 stood at 8.7 µM.

On to “SW948 (large intestine, adherent, top dose 20 µM)”, for which the AUC is 0.921 and the IC50 was above 20 µM.

For the cell line “SW954 (urogenital system, adherent, top dose 20 µM)”, the AUC was 0.629 and the 50% inhibitory concentration (IC50) came to 2.86 µM.

Regarding “SW962 (urogenital system, adherent, top dose 20 µM)”, the AUC stood at 0.968 and the IC50 is above 20 µM.

In the case of “SW982 (soft tissue, adherent, top dose 20 µM)”, the AUC amounted to 0.897 and the IC50 is above 20 µM.

On to “SW1088 (glioma, adherent, top dose 20 µM)”, for which the AUC amounted to 0.947 and the IC50 was above 20 µM.

For the cell line “SW1116 (large intestine, adherent, top dose 20 µM)”, the AUC stood at 0.982 and the concentration for half-maximal inhibition (IC50) was above 20 µM.

As to “SW1271 (small cell lung carcinoma, adherent, top dose 20 µM)”, the AUC came out at 0.715 and the IC50 was 5.62 µM.

Consider “SW1417 (large intestine, adherent, top dose 20 µM)”, for which the AUC worked out at 0.764 and the IC50 turned out to be 8.44 µM.

For “SW1463 (large intestine, adherent, top dose 20 µM)”, the AUC is 0.423 and the IC50 turned out to be 0.662 µM.

Turning to “SW1573 (lung adenocarcinoma, adherent, top dose 20 µM)”, the AUC is 0.805 and the IC50 is 14.6 µM.

“SW1710 (bladder, adherent, top dose 20 µM)”: the AUC amounted to 0.874 and the IC50 was above 20 µM.

In the case of “SW1783 (glioma, adherent, top dose 20 µM)”, the AUC stood at 0.954 and the IC50 was above 20 µM.

As to “SW1990 (pancreas, adherent, top dose 20 µM)”, the AUC amounted to 0.959 and the half-inhibitory concentration (IC50) is above 20 µM.

As to “Saos-2 (osteosarcoma, adherent, top dose 20 µM)”, the AUC was 0.979 and the IC50 is above 20 µM.

Take SiHa (cervix, adherent, top dose 20 µM): the AUC was determined as 0.987 and the IC50 is above 20 µM.

Consider T47D (breast, adherent, top dose 20 µM), for which the AUC amounted to 0.729 and the IC50 came to 8.09 µM.

In the case of “T84 (large intestine, adherent, top dose 20 µM)”, the AUC is 0.869 and the IC50 worked out at 19 µM.

As to T98G (glioma, adherent, top dose 20 µM), the AUC was 0.978 and the IC50 was above 20 µM.

On to “T-24 (bladder, adherent, top dose 20 µM)”, for which the AUC is 0.858 and the IC50 is 15.3 µM.

“T-T (oesophagus, adherent, top dose 20 µM)”: the AUC amounted to 0.959 and the IC50 is above 20 µM.

Regarding “TALL-1 (T-cell lymphoblastic leukaemia, suspension, top dose 20 µM)”, the AUC was determined as 0.964 and the IC50 is above 20 µM.

In the case of “TC-71 (Ewing sarcoma, adherent, top dose 20 µM)”, the AUC turned out to be 0.85 and the half-inhibitory concentration (IC50) was determined as 11.4 µM.

As to “TCCSUP (bladder, adherent, top dose 20 µM)”, the AUC was 0.938 and the 50% inhibitory concentration (IC50) was above 20 µM.

For “TE-1 (oesophagus, adherent, top dose 20 µM)”, the AUC stood at 0.871 and the IC50 was above 20 µM.

Take “TE-4 (oesophagus, adherent, top dose 20 µM)”: the AUC is 0.954 and the concentration for half-maximal inhibition (IC50) was above 20 µM.

As to “TE-5 (oesophagus, adherent, top dose 20 µM)”, the AUC is 0.96 and the IC50 is above 20 µM.

Consider “TE-6 (oesophagus, adherent, top dose 20 µM)”, for which the AUC is 0.965 and the 50% inhibitory concentration (IC50) is above 20 µM.

With “TE-8 (oesophagus, adherent, top dose 20 µM)”, the AUC was 0.954 and the 50% inhibitory concentration (IC50) was above 20 µM.

In the case of “TE-9 (oesophagus, adherent, top dose 20 µM)”, the AUC was 0.959 and the IC50 was above 20 µM.

Take “TE-10 (oesophagus, adherent, top dose 20 µM)”: the AUC is 0.903 and the concentration for half-maximal inhibition (IC50) was above 20 µM.

For “TE-11 (oesophagus, adherent, top dose 20 µM)”, the AUC was 0.979 and the IC50 was above 20 µM.

Regarding “TE-12 (oesophagus, suspension, top dose 20 µM)”, the AUC stood at 0.88 and the IC50 is above 20 µM.

Take “TE-15 (oesophagus, suspension, top dose 20 µM)”: the AUC worked out at 0.567 and the IC50 was 1.95 µM.

Consider “TE-441-T (rhabdomyosarcoma, adherent, top dose 20 µM)”, for which the AUC amounted to 0.889 and the IC50 is above 20 µM.

For the cell line “TGBC1TKB (biliary tract, adherent, top dose 20 µM)”, the AUC worked out at 0.983 and the IC50 is above 20 µM.

For the cell line “TGBC11TKB (stomach, adherent, top dose 20 µM)”, the AUC amounted to 0.974 and the IC50 is above 20 µM.

As to “TGBC24TKB (biliary tract, adherent, top dose 20 µM)”, the AUC worked out at 0.987 and the IC50 was above 20 µM.
